According to publication PMC10569261:
No constants are given. Whether binding was seen depends on the method and setting. For some assays here: In cells and extracts the contact can be indirect. Some binding calls cover weakened binding; strength is not graded here.

Amino acid sequences for entries named in this document (tags omitted). A change or cut given only in a name is not applied to a line headed by its entry.
UniProt Q14643: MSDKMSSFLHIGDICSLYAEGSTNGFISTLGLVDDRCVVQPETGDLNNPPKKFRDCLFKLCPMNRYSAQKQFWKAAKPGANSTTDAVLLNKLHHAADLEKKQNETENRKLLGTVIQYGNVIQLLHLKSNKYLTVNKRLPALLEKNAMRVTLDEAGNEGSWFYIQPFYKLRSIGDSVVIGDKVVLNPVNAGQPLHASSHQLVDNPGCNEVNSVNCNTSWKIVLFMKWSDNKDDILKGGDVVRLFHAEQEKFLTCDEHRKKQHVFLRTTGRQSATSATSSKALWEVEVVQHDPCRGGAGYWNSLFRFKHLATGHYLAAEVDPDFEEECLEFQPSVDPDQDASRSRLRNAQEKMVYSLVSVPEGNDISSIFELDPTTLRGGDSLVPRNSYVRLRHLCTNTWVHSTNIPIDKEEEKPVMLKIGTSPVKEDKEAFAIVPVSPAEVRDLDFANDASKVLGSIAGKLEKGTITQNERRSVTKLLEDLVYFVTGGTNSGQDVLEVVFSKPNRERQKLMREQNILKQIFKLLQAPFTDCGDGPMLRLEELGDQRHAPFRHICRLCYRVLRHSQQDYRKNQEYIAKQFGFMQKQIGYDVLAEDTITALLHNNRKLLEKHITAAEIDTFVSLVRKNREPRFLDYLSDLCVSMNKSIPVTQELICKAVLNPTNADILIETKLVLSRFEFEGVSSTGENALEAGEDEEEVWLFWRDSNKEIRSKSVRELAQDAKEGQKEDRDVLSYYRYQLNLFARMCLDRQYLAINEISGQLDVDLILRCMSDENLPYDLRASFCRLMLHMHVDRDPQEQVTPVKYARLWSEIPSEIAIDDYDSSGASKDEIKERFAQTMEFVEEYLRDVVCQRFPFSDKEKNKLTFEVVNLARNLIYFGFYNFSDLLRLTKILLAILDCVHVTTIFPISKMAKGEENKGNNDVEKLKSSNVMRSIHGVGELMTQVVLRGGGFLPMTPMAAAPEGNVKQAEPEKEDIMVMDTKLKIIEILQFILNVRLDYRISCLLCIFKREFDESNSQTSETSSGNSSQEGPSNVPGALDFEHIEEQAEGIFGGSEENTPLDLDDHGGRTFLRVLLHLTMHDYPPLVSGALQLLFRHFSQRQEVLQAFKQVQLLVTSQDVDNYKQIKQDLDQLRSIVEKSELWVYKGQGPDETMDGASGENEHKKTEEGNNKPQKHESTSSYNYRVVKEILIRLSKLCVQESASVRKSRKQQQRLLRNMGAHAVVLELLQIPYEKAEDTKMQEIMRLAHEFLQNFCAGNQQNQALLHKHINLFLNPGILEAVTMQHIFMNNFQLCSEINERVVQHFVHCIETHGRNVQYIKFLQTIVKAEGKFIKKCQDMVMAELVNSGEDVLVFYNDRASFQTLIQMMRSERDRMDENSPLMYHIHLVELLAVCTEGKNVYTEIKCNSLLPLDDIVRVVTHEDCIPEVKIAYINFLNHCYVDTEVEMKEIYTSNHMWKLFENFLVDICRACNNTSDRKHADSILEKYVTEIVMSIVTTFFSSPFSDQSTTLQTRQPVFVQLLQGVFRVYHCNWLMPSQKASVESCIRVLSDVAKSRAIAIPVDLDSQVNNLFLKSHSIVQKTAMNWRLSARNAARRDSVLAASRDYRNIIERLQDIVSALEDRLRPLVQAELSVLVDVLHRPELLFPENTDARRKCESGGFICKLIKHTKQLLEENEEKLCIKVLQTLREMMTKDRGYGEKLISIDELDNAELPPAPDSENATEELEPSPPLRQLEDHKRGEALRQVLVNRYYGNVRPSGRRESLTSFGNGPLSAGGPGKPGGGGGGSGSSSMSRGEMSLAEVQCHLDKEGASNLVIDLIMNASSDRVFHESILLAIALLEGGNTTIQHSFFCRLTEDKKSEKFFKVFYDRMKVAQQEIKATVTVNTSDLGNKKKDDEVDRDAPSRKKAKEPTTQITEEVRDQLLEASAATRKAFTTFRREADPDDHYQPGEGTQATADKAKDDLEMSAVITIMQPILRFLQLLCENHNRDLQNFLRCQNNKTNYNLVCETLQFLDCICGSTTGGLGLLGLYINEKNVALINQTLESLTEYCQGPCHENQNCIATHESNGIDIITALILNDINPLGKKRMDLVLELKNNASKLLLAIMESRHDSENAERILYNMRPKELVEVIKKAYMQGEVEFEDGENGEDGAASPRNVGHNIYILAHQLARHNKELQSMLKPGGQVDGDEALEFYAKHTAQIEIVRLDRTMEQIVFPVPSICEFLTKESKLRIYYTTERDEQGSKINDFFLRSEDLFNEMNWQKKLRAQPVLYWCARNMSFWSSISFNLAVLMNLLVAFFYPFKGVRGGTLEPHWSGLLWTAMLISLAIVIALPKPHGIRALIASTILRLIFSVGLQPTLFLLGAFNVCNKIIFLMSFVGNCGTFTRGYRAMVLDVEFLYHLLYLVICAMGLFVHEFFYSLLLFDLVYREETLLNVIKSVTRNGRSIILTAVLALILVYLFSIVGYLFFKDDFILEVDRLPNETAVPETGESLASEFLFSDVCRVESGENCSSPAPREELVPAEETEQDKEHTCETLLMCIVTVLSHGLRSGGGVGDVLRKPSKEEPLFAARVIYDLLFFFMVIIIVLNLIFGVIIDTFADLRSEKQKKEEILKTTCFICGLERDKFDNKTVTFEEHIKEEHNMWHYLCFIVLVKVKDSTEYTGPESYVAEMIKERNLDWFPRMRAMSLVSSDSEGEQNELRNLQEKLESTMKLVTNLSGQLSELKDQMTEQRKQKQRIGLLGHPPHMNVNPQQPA
UniProt P11881: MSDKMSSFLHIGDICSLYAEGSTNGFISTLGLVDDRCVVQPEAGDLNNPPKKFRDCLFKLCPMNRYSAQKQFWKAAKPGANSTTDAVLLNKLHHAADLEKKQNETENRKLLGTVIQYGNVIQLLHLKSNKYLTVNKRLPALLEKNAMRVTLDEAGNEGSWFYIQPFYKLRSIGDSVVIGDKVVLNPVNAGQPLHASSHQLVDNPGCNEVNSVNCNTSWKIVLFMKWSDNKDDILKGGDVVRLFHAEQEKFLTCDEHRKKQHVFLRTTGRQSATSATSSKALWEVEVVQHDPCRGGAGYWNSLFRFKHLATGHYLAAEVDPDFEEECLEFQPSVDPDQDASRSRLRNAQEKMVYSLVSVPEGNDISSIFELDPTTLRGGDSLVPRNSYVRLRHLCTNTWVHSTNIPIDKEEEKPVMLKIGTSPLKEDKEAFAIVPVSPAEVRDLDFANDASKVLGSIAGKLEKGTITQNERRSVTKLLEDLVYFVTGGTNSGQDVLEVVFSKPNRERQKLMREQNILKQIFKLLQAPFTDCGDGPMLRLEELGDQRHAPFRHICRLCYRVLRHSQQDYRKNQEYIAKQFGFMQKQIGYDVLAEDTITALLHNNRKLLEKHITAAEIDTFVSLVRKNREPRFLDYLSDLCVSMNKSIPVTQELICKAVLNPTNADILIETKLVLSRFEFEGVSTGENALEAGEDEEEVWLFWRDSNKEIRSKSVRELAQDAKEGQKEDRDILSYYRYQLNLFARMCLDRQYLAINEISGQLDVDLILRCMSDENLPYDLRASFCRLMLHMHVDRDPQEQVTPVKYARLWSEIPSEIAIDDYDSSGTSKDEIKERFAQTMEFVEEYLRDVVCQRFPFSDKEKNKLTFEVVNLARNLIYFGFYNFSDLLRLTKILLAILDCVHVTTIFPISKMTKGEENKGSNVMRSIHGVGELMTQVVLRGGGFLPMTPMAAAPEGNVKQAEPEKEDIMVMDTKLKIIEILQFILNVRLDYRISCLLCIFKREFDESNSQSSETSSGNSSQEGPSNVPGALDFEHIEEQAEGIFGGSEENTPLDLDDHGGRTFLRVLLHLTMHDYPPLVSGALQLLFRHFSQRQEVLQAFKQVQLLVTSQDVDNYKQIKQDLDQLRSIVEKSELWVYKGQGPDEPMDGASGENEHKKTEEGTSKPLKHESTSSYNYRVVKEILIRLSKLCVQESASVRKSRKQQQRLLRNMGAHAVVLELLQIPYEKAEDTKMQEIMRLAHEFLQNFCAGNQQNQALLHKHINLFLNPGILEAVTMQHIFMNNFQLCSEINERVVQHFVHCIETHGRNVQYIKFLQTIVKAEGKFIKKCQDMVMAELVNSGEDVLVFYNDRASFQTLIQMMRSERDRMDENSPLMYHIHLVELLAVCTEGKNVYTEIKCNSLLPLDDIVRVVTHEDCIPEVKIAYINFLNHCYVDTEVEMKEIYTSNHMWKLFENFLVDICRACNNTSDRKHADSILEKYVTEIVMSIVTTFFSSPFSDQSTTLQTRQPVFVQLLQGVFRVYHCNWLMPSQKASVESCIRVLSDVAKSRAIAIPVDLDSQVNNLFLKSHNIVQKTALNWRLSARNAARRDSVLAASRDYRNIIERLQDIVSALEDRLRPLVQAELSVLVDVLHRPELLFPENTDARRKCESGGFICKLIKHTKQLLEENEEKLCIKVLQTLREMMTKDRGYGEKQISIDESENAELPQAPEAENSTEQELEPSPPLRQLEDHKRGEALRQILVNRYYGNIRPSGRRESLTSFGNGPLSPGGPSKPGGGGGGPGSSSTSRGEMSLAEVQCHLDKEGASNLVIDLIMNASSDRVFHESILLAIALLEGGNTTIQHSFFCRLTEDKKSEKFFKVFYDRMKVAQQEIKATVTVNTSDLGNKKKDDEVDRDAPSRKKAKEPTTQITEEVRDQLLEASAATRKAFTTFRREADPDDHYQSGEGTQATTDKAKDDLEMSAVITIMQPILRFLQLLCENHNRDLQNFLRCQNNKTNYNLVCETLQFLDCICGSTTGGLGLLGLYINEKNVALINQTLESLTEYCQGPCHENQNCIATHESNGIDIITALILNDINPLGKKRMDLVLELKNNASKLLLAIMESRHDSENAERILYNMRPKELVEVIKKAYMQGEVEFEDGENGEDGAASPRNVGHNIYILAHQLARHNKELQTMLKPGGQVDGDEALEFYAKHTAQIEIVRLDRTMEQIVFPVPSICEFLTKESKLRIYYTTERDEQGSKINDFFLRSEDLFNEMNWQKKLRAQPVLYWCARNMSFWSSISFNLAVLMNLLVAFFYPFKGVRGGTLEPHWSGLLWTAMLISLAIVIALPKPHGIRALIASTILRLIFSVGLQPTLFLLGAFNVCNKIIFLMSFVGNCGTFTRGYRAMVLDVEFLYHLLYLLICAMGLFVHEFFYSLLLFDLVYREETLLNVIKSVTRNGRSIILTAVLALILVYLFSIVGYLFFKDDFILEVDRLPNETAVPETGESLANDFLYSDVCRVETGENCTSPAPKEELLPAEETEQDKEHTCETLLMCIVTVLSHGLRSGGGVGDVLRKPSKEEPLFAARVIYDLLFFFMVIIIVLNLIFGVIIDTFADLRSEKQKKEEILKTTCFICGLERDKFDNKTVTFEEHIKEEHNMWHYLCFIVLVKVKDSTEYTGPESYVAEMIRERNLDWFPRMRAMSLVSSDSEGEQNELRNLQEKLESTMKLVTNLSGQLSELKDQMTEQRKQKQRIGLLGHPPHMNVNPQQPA
UniProt P06240: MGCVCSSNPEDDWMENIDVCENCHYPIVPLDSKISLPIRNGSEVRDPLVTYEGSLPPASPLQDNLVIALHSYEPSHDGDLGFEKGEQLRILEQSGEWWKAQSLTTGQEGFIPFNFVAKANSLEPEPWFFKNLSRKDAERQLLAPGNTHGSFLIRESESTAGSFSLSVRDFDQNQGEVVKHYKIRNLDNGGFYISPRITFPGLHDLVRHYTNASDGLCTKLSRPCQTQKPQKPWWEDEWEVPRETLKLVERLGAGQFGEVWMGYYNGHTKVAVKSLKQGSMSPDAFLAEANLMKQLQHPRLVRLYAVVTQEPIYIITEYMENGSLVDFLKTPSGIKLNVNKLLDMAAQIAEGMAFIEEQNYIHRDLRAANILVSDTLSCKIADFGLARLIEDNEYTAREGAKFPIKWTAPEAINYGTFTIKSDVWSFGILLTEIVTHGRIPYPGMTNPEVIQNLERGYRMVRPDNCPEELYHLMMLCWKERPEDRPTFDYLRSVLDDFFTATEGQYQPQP
UniProt P06239: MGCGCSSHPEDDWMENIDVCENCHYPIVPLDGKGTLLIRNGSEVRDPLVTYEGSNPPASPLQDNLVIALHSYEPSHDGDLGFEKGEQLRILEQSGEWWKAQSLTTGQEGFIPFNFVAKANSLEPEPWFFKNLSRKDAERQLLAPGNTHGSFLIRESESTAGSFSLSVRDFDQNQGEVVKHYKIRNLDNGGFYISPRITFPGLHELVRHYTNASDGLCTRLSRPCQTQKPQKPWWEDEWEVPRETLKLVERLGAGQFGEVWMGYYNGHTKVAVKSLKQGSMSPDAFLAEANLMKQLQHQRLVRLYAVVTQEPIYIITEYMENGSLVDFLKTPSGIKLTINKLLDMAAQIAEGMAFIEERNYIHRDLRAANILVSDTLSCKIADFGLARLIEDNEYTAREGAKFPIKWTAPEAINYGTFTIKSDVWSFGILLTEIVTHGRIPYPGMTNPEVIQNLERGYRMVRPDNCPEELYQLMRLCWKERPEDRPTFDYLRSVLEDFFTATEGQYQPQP

Experiments:
[1] = biological target: IP3R-1, endogenous in Jurkat T cells (human (endogenous in Jurkat)) (UniProt Q14643); experiment: co-IP; immunoprecipitation with anti-IP3R-1 antibody from cell lysate (1% CHAPS, 50 mM Tris, 100 mM NaCl, 2 mM EDTA), protein G-agarose; western blot for Lck
[2] = biological target: T1, biotin-labelled D5SD peptide (human); experiment: pull-down; biotin-labelled peptides immobilised on streptavidin-coated beads, incubated with cell lysates (WEHI7.2, Jurkat) for 18 h at 4°C; western blot for Lck; only the target purified
T1 sequence (peptide, biotin (position not stated)): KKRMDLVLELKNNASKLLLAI

[3] = biological target: T2, biotin-labelled control peptide; experiment: as above
T2 sequence (peptide, biotin (position not stated)): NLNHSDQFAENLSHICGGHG

[4] = biological target: T1, biotin-labelled D5SD peptide (human); experiment: pull-down; biotin-labelled peptide immobilised on streptavidin-coated beads, incubated with purified GST-tagged SH2-Lck for 18 h at 4°C; beads washed in TBS (25 mM Tris-HCl, 0.15 M NaCl, pH 7); beads, eluate and flow-through analysed by western blot; both purified
[5] = biological target: IP3R-1, endogenous in WEHI7.2 cells (mouse (endogenous in WEHI7.2)) (UniProt P11881); experiment: co-IP; immunoprecipitation with anti-IP3R-1 antibody from cell lysate (1% CHAPS, 50 mM Tris, 100 mM NaCl, 2 mM EDTA), protein G-agarose; western blot for Lck
[6] = biological target: Lck, endogenous in WEHI7.2 (murine) cells (mouse (endogenous in WEHI7.2)) (UniProt P06240); experiment: co-IP; WEHI7.2 lysate incubated with D5SD peptide for 1 h at 4°C before immunoprecipitation with anti-IP3R-1 antibody; loss of co-precipitated Lck; only the binder purified

Lck, endogenous in Jurkat (human) cells (from UniProt P06239 1-509)
binding [1]: binds | binding [2]: binds | binding [3]: no binding

purified GST-tagged SH2 domain from Lck (from UniProt P06239 127-224) (domain or fragment)
binding [4]: binds

Lck, endogenous in WEHI7.2 (murine) cells (from UniProt P06240 1-509)
binding [5]: binds | binding [2]: binds | binding [3]: no binding

KKRMDLVLELKNNASKLLLAI [D5SD peptide]
binding [6]: binds
